Results on one compound are retold here after patent US20050020580A1, “Materials and methods for the prevention or treatment of apoptosis and apoptosis-related diseases and conditions” (priority 2002, published 2005).

This series can be described thus: Mouse pharmacokinetic studies: plasma drug concentrations by LC/MS/MS. The format is in vivo, mice (BALB/C). The procedure: Administration of PI for Experimental Protocols: Six to eight-week-old BALB/C mice (Jackson Labs, Bar Harbor, Me.) were acclimatized for one week before receiving either control vehicle or PI by gavage. PIs were prepared by dissolving 1% weight per volume carboxymethylcellulose and 15 mg/mL Nelfinavir (NFV) oral powder (commercial preparation, Agouron Laboratories, La Jolla, Calif.) in 2% ethanol in distilled water. […] The PI mixture was administered every 8 hours for the indicated number of doses and mice were either sacrificed for pharmacokinetic studies or treated as described. Histopathology was performed by a consulting veterinary pathologist who was blinded as to the nature of experimental treatments.
Immediately preceding the fourth dose and every two hours post gavage until hour 8, plasma drug concentrations were assayed. At both doses, NFV was undetectable (i.e. <2.5 ng/mL) 6 hours after dosing.
Drug levels were assessed in two mice each for several time-points. NFV levels were 8172 and 8914 ng/mL at 1 hour, 5999 and 6006 ng/mL at 2 hours, 5559 and 6048 ng/mL at 3 hours, and 4005 to 4217 ng/mL at 4 hours post-dosing.

[1] abbreviates: NFV 125 mg/kg and RIT 13 mg/kg every 8 hours, plasma, two mice.

Turning to `Cc1c(O)cccc1C(=O)N[C@@H](CSc1ccccc1)[C@H](O)CN1C[C@H]2CCCC[C@H]2C[C@H]1C(=O)NC(C)(C)C` [NFV, nelfinavir], the concentration at 1 h (BALB/C, mouse, plasma, oral, NFV 125 mg/kg and RIT 13 mg/kg every 8 hours, plasma, two mice, read-out: NFV levels at 1 hour post-dosing) amounted to 8170 ng/mL. Also, the concentration at 2 h (BALB/C, mouse, plasma, oral, NFV 125 mg/kg and RIT 13 mg/kg every 8 hours, plasma, two mice, read-out: NFV levels at 2 hours post-dosing) was found to be 6000 ng/mL. In addition, under “BALB/C, mouse, plasma, oral, NFV 125 mg/kg and RIT 13 mg/kg every 8 hours, plasma, two mice, read-out: NFV levels at 3 hours post-dosing”, the concentration at 3 h turned out to be 5560 ng/mL. For the same compound, where the note is “BALB/C, mouse, plasma, oral, NFV 125 mg/kg and RIT 13 mg/kg every 8 hours, plasma, two mice, read-out: NFV levels at 4 hours post-dosing”, the concentration at 4 h is 4000 to 4220 ng/mL. For the setting “BALB/C, mouse, plasma, oral, NFV 125 mg/kg and RIT 13 mg/kg every 8 hours, plasma, read-out: NFV trough concentrations (8 hours post-dosing)”, the concentration at 8 h is 1200 to 1260 ng/mL. Also, under setting [1], the “NFV levels at 1 hour post-dosing” value worked out at 8914 ng/mL, the “NFV levels at 2 hours post-dosing” value amounted to 6006 ng/mL and the “NFV levels at 3 hours post-dosing” value came to 6048 ng/mL. For the same compound, where the note is “NFV alone 250 mg/kg every 8 hours, BALB/C and C57BL/6 mice”, the “NFV plasma concentrations 6 hours after dosing” value is on record as “undetectable”.
